# Measured values as given in PubChem BioAssay AID588795 (National Center for Advancing Translational Sciences (NCATS), 2011).
# Values joined by “and” are separate entries in the source; they are usually repeats but may differ in a detail not shown here. Identical values can stand only once. About 1,400 (0.36%) of roughly 390,000 compounds were called active. The inconclusive results got no clear call from the source; some entries with a clear call stand among them for comparison. The call rests on the fitted dose curve; in most records, active means well fitted inhibition curve with a large enough effect; inconclusive means small, poorly fitted or top-dose-only effect; inactive means no such curve, though single readings can be large or run the other way. Potencies of inconclusive entries are doubtful fits and often do not repeat.
# Target: Flap endonuclease 1 (Homo sapiens) (UniProt P39748)
# UniProt P39748, sequence (P39748 whole entry, looked up): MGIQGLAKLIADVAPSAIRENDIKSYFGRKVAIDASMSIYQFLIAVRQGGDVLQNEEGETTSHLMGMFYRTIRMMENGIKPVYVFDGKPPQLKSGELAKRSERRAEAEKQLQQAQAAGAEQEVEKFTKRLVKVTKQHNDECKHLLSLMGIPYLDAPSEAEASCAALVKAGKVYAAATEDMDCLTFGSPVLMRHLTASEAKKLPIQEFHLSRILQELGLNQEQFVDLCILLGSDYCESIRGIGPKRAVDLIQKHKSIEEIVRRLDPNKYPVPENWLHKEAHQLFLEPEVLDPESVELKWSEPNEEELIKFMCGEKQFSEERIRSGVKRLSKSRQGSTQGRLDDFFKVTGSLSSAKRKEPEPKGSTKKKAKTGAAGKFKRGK
# Assay: qHTS Assay for the Inhibitors of Human Flap endonuclease 1 (FEN1). Further: nearly all actives have a fitted effect of over 65% in size.
# Details: Recombinant FEN1 flap cleavage, fluorescence, 15 min; series mostly up to 114 µM; activity change, negative = inhibition: at the top concentration
# Method in brief: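 Nuclease activity of 10 nM FEN1 was measured after 15 min of room-temperature exposure to titrated compounds, by adding 50 nM flap substrate and reading plates at 0 and 15 min.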
# On the % scale 0 is the no-effect control and ±100 the full control effect; potency means the concentration at half of the fitted maximal effect; tags describe the fitted curve by direction and shape.
SMILES,Potency,"activity change, negative = inhibition"
CC(=O)C1=C(O)C(=O)N(Cc2ccccc2)C1c1ccc(N(C)C)cc1 (centres undefined),active: 17.8 µM,–
CC(C)c1nc(SCC(=O)N2CCCC2)c2ccccc2n1,–,inactive: 2.26%
O=C(O)CN1C(=O)/C(=C\c2ccccc2OCc2ccc(F)cc2)SC1=S,–,inactive: -15.9%
COc1ccc(/C=N/NC(=O)c2cc(-c3ccccc3)nc3ccccc23)cc1O,"inconclusive: 14.1 µM [inhibitor, partial curve, poor fit]",–
O=C(/C=C/c1ccccc1)Nc1cc(NC(=O)/C=C/c2ccccc2)cc(C(=O)O)c1,"inconclusive: 79.4 µM [inhibitor, single point]",–
COc1cc(/C=C/c2ccc3c([N+](=O)[O-])cccc3n2)ccc1OCC(=O)O,"inconclusive: 50.1 µM [inhibitor, partial curve, poor fit]",–
Cc1ccc(C)c(Nc2nnc(-c3ccc(C)c(S(=O)(=O)N4CCCCC4)c3)c3ccccc23)c1,active: 89.1 µM,–
CC(C)c1ccc(NC(=O)C(Cc2ccccc2)NS(=O)(=O)c2ccc3c(c2)CCC(=O)N3)cc1 (centres undefined),–,inactive: 9.67%
CN(C)c1ccc(/C=C/c2ccnc3ccc4ccccc4c23)cc1,active: 11.2 µM,–
CC1CC(C)CN(C(=O)C(NS(=O)(=O)c2ccc(Br)s2)c2ccccc2)C1 (centres undefined),"inconclusive: 70.8 µM [inhibitor, partial curve, poor fit]",–
COC(=O)c1c(NC(=O)c2ccco2)sc2c1CCN(C(C)C)C2,"inconclusive: 56.2 µM [inhibitor, partial curve, poor fit]",–
COc1cc2c3nnc(-c4ccccc4)c-3cn(Cc3ccc(F)cc3)c2cc1OC,"inconclusive: 35.5 µM [inhibitor, partial curve]",–
O=C1CC(=O)N(Cc2ccco2)C(=S)N1,active: 35.5 µM,–
Cc1ccc(OCCC(=O)OCC(=O)c2c(N)n(CC(C)C)c(=O)n(C)c2=O)cc1,"inconclusive: 39.8 µM [inhibitor, partial curve, poor fit]",–
Cc1ccc(-c2nc3c(c(SCC(=O)Nc4cccc(C(=O)O)c4)n2)Cc2cccc(C)c2O3)cc1,"inconclusive: 44.7 µM [inhibitor, partial curve, poor fit] and inconclusive: 7.94 µM [inhibitor, full curve, poor fit]",–
O=C(O)Cc1ccc(NC(=O)c2ccc(NC(=O)c3ccco3)cc2)cc1,–,inactive: 6.23%
Cc1cc2c(cc1Cl)N(C(=O)Nc1ccnc3ccccc13)CC2,"inconclusive: 4.74 µM [inhibitor, single point]",–
O=C1c2ccc3c4c(ccc(c24)C(=O)N1CCCCO)C(=O)N(CCCCO)C3=O,"inconclusive: 14.1 µM [inhibitor, full curve, poor fit]",–
CCc1cc2cccc(C)c2nc1SCC(=O)N1CCN(C(=O)c2ccco2)CC1,"inconclusive: 79.4 µM [inhibitor, partial curve, poor fit]",–
O=C(NCc1ccccc1)C1=C[C@@H](c2ccc(C(F)(F)F)cc2)C[C@@H](OCCCCO)O1,"inconclusive: 28.2 µM [inhibitor, partial curve, poor fit]",–
CC(=O)Nc1ccc(N2C(=O)c3cccc4c(O)ccc(c34)C2=O)cc1,"inconclusive: 28.2 µM [inhibitor, partial curve]",–
CC(=O)N(C)C1=C(O)c2ccccc2C(=O)C1=O,–,inactive: -11.6%

SMILES,Potency,"activity change, negative = inhibition"
Cc1ccc(-c2nnn3c2nc(NCc2ccc4c(c2)OCO4)c2ccccc23)cc1,–,inactive: 21.9%
CC1(C)SC(=S)N(NC(=O)Nc2ccccc2)C1N(O)C(=O)Nc1cccc2ccccc12 (centres undefined),"inconclusive: 44.7 µM [inhibitor, partial curve, poor fit]",–
O=C(NCc1ccc(N2CCCC2=O)cc1)NC1CCCCC1,–,inactive: 1.48%
Cc1cccc(OCC(=O)NCc2ccccc2)c1,"inconclusive: 89.1 µM [inhibitor, partial curve, poor fit]",–
c1ccc(C(NCc2cccnc2)(c2ccccc2)c2ccccc2)cc1,"inconclusive: 37.7 µM [inhibitor, single point]",–
Cn1cnnc1Sc1ccc(/C=C/C(=O)c2ccc(O)cc2)cc1[N+](=O)[O-],"inconclusive: 39.8 µM [inhibitor, single point]",–
O=C(Cn1cnc2nc3c(cc2c1=O)CCCC3)N1CCN(c2ccccc2)CC1,–,inactive: 19.9%
CCn1c2ccccc2c2cnc(N=CN(C)C)c(C#N)c21,"inconclusive: 50.1 µM [inhibitor, partial curve]",–
COC(=O)c1[nH]c2ccccc2c1NC(=O)CN1CCCc2ccccc21,"inconclusive: 89.1 µM [inhibitor, partial curve, poor fit]",–
O=C(NCc1ccccc1)c1ccc(CS(=O)(=O)Cc2ccccc2F)o1,–,inactive: -6.28%
CN(CC(=O)NCCc1ccc(Cl)cc1)S(=O)(=O)c1ccc2c(c1)c(=O)n(C)c(=O)n2C,–,inactive: -0.666%
CCCN(CC(=O)Nc1ccccc1C)C(=O)CCl,–,inactive: -0.365%
CCOC(=O)c1ccc(CN(Cc2ccc(C)cc2)S(=O)(=O)c2ccc(NC(C)=O)cc2)cc1,"inconclusive: 50.1 µM [inhibitor, partial curve, poor fit]",–
Oc1[nH]c2ccccc2c1C=Nc1ccc2c(c1)OCO2,–,inactive: -18.4%
CC(=O)Nc1ccc(Nc2nnc(-c3ccc(C)c(S(N)(=O)=O)c3)c3ccccc23)cc1,"inconclusive: 89.1 µM [inhibitor, partial curve]",–
O=C(CSc1nc(-c2ccc(F)cc2)nc2c1Cc1ccccc1O2)Nc1ccc(C(=O)O)cc1,"inconclusive: 35.5 µM [inhibitor, partial curve, poor fit]",–
CCCCn1c(SCC(=O)NCc2ccccc2)nc2ccc(N3CCOCC3)cc2c1=O,–,inactive: 0.791%
Cc1[nH][nH]c(=O)c1/C=N/N1CCOCC1,"inconclusive: 39.8 µM [inhibitor, single point]",–
CS(=O)(=O)N1CCN(c2ccccc2NC(=O)Nc2cccc(Cl)c2)CC1,"inconclusive: 44.7 µM [inhibitor, partial curve, poor fit]",–
COc1ccc(-c2csc3nc(-c4ccccc4F)oc(=O)c23)cc1OC,"inconclusive: 89.1 µM [inhibitor, partial curve, poor fit]",–
CC(=O)Nc1ccc(C(=O)/C=C/c2ccco2)cc1,"inconclusive: 89.1 µM [inhibitor, partial curve, poor fit]",–
O=C(N/N=C/c1ccc(Cl)c([N+](=O)[O-])c1)c1ccc2nc[nH]c2c1,"inconclusive: 56.2 µM [inhibitor, partial curve, poor fit]",–

SMILES,Potency,"activity change, negative = inhibition"
CCCCOc1ccc(-c2c(C(=O)Nc3ccccc3)c(C)[nH]c(=S)c2C#N)cc1,–,inactive: 20%
COc1ccc(OC)c(-c2cc(C(=O)Nc3ccccc3C(N)=O)c3ccccc3n2)c1,"inconclusive: 35.5 µM [inhibitor, partial curve, poor fit]",–
Cc1ccc(-c2nnc(Nc3ccc(S(N)(=O)=O)cc3)c3ccccc23)cc1S(=O)(=O)N1CCCCC1,"inconclusive: 100 µM [inhibitor, single point]",–
CC(C(=O)Nc1ccc2[nH]c(=O)[nH]c2c1)N1CCN(Cc2ccc3c(c2)OCO3)CC1 (centres undefined),"inconclusive: 79.4 µM [inhibitor, single point]",–
O=C(CC1SC(=Nc2ccccc2)N(Cc2ccccn2)C1=O)Nc1cccc(Cl)c1 (centres undefined),"inconclusive: 39.8 µM [inhibitor, partial curve, poor fit]",–
O=C(NC1CC1)C1CCN(S(=O)(=O)c2cc([N+](=O)[O-])ccc2Cl)CC1,"inconclusive: 50.1 µM [inhibitor, partial curve]",–
Cc1ccc(NC(=O)CN(C)C(=O)c2cccc(-n3cccc3)c2)cc1,"inconclusive: 56.2 µM [inhibitor, partial curve]",–
O=S(=O)(c1ccc(Br)cc1)N1CCCc2ccccc21,–,inactive: -13.3%
CCn1cc(C(=O)NCCc2ccc(Cl)cc2)c(=O)c2cc(S(=O)(=O)N3CCC(C)CC3)ccc21,–,inactive: 9.72%
Cc1cccc(N2CCN(c3nc4ccc(C)cc4n4cnnc34)CC2C)c1 (centres undefined),–,inactive: -16.8%
CC(=O)NC1C(=O)N(CCN2CCOCC2)c2ccc(Cl)cc21 (centres undefined),"inconclusive: 89.1 µM [inhibitor, single point]",–
COc1c(-c2ccc(O)c(O)c2)oc2cc(O)cc(O)c2c1=O,active: 25.1 µM,–
O=c1cc(-c2ccc(O)c(O)c2)oc2cc(O[C@@H]3O[C@H](CO)[C@@H](O)[C@H](O)[C@H]3O)cc(O)c12,"inconclusive: 17.8 µM [inhibitor, full curve]",–
COc1ccc(/C=C2/SC(=S)N(CC(=O)O)C2=O)cc1OCc1ccc(Cl)cc1,"inconclusive: 79.4 µM [inhibitor, partial curve, poor fit]",–
CCOC(=O)C1CCN(C(=O)C23CC4CC(CC(C4)C2)C3)CC1,–,inactive: 3.31%
CCOc1ccc(N=Cc2c(C)[nH]n(-c3nc4ccccc4[nH]3)c2=O)cc1,"inconclusive: 70.8 µM [inhibitor, partial curve]",–
Cc1ccccc1NC(=O)CCS(=O)(=O)c1ccc(Br)s1,–,inactive: -4.57%
CC(C)CCn1c(O)c(N=NC(=O)c2ccco2)c2ccccc21,"inconclusive: 89.1 µM [inhibitor, partial curve, poor fit]",–
COc1cc(OC)c2nc(C)c3c(c2c1)N(c1ccc(O)cc1)CC3,"inconclusive: 50.1 µM [inhibitor, partial curve]",–
CCSc1c([N+](=O)[O-])c(=O)n(-c2ccccc2)c2ccccc12,"inconclusive: 39.8 µM [inhibitor, partial curve]",–
